Measured values published in the RNAGym collection of RNA variant scans (doi:10.7554/elife.90254).
The source gives no read counts; variants with many changes may rest on few reads.

B1: OR4K15 (parent)
chain: GUUAACGGUCAUAGGCCAUGGAAACUAGGAGCACCAUUUCGCUGCCAGUGAAGAAAUGAACAAAGAAAAUCUGGGCCAGGCAGGCAUCAAAAGAAAUAGUCUUGCGCUCAACCAGAAAGUCUGUAAUCAUUUUAAGGGUA

Variants of: B1
Experiment: self-cleavage, relative activity (ratio to wild type); higher = more cleavage; in vitro, sequencing; the parent is a self-cleaving ribozyme
Variant GUUAACGGUCAUAGGCCAUGGAAACUAGGAGCACCAUUUCGCUGCCAGAGAAGAAAUGAACAAAGAAAAUCUGGGCCAGGCAGGCAUCAAAAGAAAUAGUCAUGCGCUCGACCAGAAAGUCUGUAAUCAUUUUAAGGGUA [U49A U102A A110G] has a self-cleavage of 0.07. Work on GUUAACGGUCAUAGGCCAUGGAAACUAGGAGCACCAUUUCGCUGCCAGUGAGGAAAUGAACAAAGAGAAUCUGGGCCGGGCAAGCAUCAAAAGAAAUAGUCUUGCGCUCAACCAGAAAGUCUGUAAUCAUUUUAAGGGCA [A52G A67G A78G G83A U139C] yielded a self-cleavage of 0.22. In the case of GUUAACGGUCAUAGGCCAUGGAAACUAGGAGCACCAUUUCGCUGCCAGUGAAGAAAUGAACAAAGAAAAUCUGGGCCAGGCAGGCAGCAAAAGAAGUAGUCUUGCGCUCAACCAGAAAGUCCGUUAUCAUUGUAAGGGUA [U87G A96G U122C A125U U132G], the self-cleavage is reported as 0.21. GUUAUCGGUCAUAGGCCAUGGAAACUAGGAGCACCAUUUCGCUGCCAGUGAAGAAAUGAACAAAGAAAACCUGGGCCAGGCAGGCAUCAAAAGAAAUAGUCUUGCGCUCCACCAGAAAGUUUGUAAUCAUUUUAAGGGUA [A5U U70C A110C C121U] showed a self-cleavage of 0.44. Variant GUUAACGGUCAUAGGCCAUGGAAACUAGUCGCACCAUUUCGCUGCCAGUGAAGAAAUGAACAGAGAAAAUCUGGGCCAGGCAGGCAUCAAAAGAAAUAGUCUUGCGCUCGACCAGGAAGUCUGUAAUCAUUUUAAGGGUA [G29U A30C A63G A110G A116G] has a self-cleavage of 0.09. With GUUAACGGUCAUAGGCCAUGGAAACUAGGAGCACCAUUUCGCCGCCAGUGAAGAAAUGAACAAAGAAAAUCUGGGCCAGGCAGGCAUCAAAAGAAAUAGUCUCGCGCCCAACCAGAAAGUCUGUAAUCAUUUUAAGGGUA [U43C U103C U108C] the self-cleavage was 0. Work on GUUAACGGGCAUAGGCCAUGGAGACUAGGAGCACCAUUUCGCUGCCAGUGAAGAAAUGAACAAAGAAAAUCUGGGCCAGGCAGGCAUCAUAAGAAAUAGUCUUGCGCUCAACCAGAAAGUCUGUAAUCAUUUUAAGGGUA [U9G A23G A90U] yielded a self-cleavage of 0.37. GUUAACGGUCACAGGCCAUGGAGACUAGGAGCACCAUUUCGCUGCCAGUGAAGAAAUGAACAAAGAAAAUCUGGGCCAGGCGGGCAUCAAAAGAAAUAGUCUUGCGCUCAACCAGAAAGUCUGUAAUCAUUUUAAGGGUA [U12C A23G A82G] showed a self-cleavage of 0.49. Work on GUUAACGGUCAUAGGCCAUGGAGACUAGGAGCACCAUUUCGCUGCCAGUGAAGAAAUGAACAAAGAAGAUCUGGGCCAGGCAGGCAUCAGAAGAAAUAGUCUUGCGCUCAACCAGAAAGUCUGUAAUCAUUUUAAGGGUA [A23G A68G A90G] yielded a self-cleavage of 0.94. Work on GUUAACGGUCAUAGGCCAUGGAAGCUAGGAGCACCAUUUCGCUGCCAGUGAAGAAAUGAACAAAGAAAAUCUGGGCCAGGCAGGCAUCAAAAGAAAUAGUCUUGCGCUCAACCAGAAAGUCUGUAGUCAUUCUAAGGGUA [A24G A126G U132C] yielded a self-cleavage of 1.4. In the case of GUUAACGGUCAUAGGCCAUGGAAACUAGGAGCACCAUUUCGCUGCCAGUGAAGAAAUGAACAAAGAAAAUCUGGGCCAGGCUGGCAUCAAAAGAAGUAGUCUUGCGCUCAACCAGAAAGUCAGUAAUCAUUUUAAGGGUA [A82U A96G U122A], the self-cleavage is reported as 0.03. Work on GUUAACGGUCAUAGGCCAUGGAAACUAGGAGCACCACUUCGCUGCCAGUGAAGAAAUGAACAAAGAGAAUCUGGGCCAGGCAGGCAUCAAAAGAAAUAGUCUUGCGCUCAACCAGGAAGUCUGUAAUCAUUUUAAGGGUA [U37C A67G A116G] yielded a self-cleavage of 0.71. Work on GUUAACGGUCAUAGGCCAUGGAAACUAGGAGCACCAUUUCGCUGCCAGUGCAGAAAUGAACAAAGAGAAUCUGGGCCAGGCGGGCAUCAAAAGAAAUAGUCUUGCGCUCAACCAGAAAGUCUGUAAUCAUUUUAAGGGUA [A51C A67G A82G] yielded a self-cleavage of 0.68. GUUAACGGUCAUAGGCCUUGGAAACUAGGAGCACCAUUCCGCUGCCAGUGAAGAAAUGAACAAAGAAAAUCUGGGCCAGGCAGGCAUCAAAAGAAAUAGUCUUGCGCUCAACCAGAAAGUCUGAAAUCAUUUUAAGGGUA [A18U U39C U124A] showed a self-cleavage of 0.43. With GUUAACGGUCAUAGGCCAUGGAAACUAGGAACACCGUUUCGCUGCCAGUGAAGAAAGGAACAAAGAAAAUCUGGGCCAGGCAGGCAUCAAAAGAAAUAGUCUUGCGCCCAACCAGAAAGUCUGUAAUCAUUUUAAGGGUA [G31A A36G U57G U108C] the self-cleavage was 0.02. In the case of GAUAACGGUCAUAGGCCAUGGAAACUAGGAGCACCAUUUCGCUGCCAGUGAGGAAAAGAACAAAGAAAGUCUGGGCCAGGCAGGCAUCAAAAGAAAUAGUCUUGCGCUCAACCAGAAAGUCAGUAAUCAUUUUAAGGGUA [U2A A52G U57A A69G U122A], the self-cleavage is reported as 0.79. GUUAACGGACAUAGGCCACGGAGACUAGGAGCACCAUUUCGCUGCCAGUGAAGAAAUGAACAAAGAAAAUCUGGGCCAGGCAGGCAUCAAAAGAAAUAGUCUUGCGCUCAACCAGAAAGUCUGUAAUCAUUUUAAGGGUA [U9A U19C A23G] gave a self-cleavage of 0.87. GUUAACGGCCAUAGGCCAUGGAAACUAGGAGCACCAUUUCGCUGCCAGUGAAGAAAUGAACAAAGAAAAUCUGGGCCAGGCAGGCACCAAAAGAAAUAGUCUUGCGCUCAACCAGAGAGUCCGUAAUCAUUUUAAGGGUA [U9C U87C A117G U122C] gave a self-cleavage of 2.25. With GUUAACGGUCAUAGGCCAUGGAAACUAGGAGCACCACUUCGCUGCCAGUGGGGAAAUGAGCAAAGAAAAUCUGGGCCAGGCAGGCAUCAAAAGAAAUAGUCUUGCGCUCAACCAGAAAGUCUGUAAUCAUUUUAAGGGUA [U37C A51G A52G A60G] the self-cleavage was 1.73. GUUAACGGUCAUAGGCCAUGGAAACUAGGAGCACCAUUUCGCUGCCAGUGAAGAAAUGAACAAAGAAGAUCUGGGCCAGGCAGGCAUCAAAAGAAAUAAUCUUGCGCUCAACCAGAGAGUCUGUAAUCAUUUUAAGGGUA [A68G G99A A117G] gave a self-cleavage of 0.58. GUUAACGGUCAUAGGCCAUGGAAACUAGGAGCACCAUUUCGCUGCCAGUGAAGUAAUGAACAAAGAAAAUCUGGGCCAGGCAGGCAUCAAAAGAAAUAGUCUUGCGCUCAACCUGAAAGUCUGUAACCAUUUUAAGGGUA [A54U A114U U127C] showed a self-cleavage of 0.02.
